Test results taken from PubChem BioAssay AID463173 (ICCB-Longwood Screening Facility, Harvard Medical School, 2010).
Among all 52,000 compounds or so, about 4,300 (8.3%) were called active. No stated cut-off is given here; in the data, active means survival mostly below about 52% (no sharp cut-off); inactive means mostly above about 56%. Some of the results follow.

system: DeltatarO mutant; assay: S. aureus survival, RN4220 and DeltatarO strains – OD600, teichoic acid synthesis inhibitors, primary screen (AID 463173); conditions: S. aureus RN4220 wild type/DeltatarO growth, OD600, 18 h, active compounds read low, screened at 18.75 µg/mL (by protocol)

Row | Structure (SMILES) | survival
1 | Cc1cc2nc(N(Cc3cccnc3)C(=O)c3ccc(Cl)s3)sc2cc1C | active: 32%
2 | COc1ccc(-n2ccnc(NCCc3ccc(Cl)cc3)c2=O)cc1OC | inactive: 60%
3 | CCN(C(=O)Cc1ccccc1OC)c1nnc(-c2ccncc2)s1 | inactive: 70%
4 | CCN(Cc1ccccc1)Cc1c(O)ccc2oc(C)c(C(=O)Nc3ccccc3C)c12 | active: 29%
5 | O=C(Cc1ccccc1)Nc1nnc2n1CCS2 | inactive: 71%
6 | CC(=O)N1c2ccc(S(=O)(=O)N(C)CC(=O)N(Cc3ccccc3)C(C)C)cc2CC1C (stereo not given) | inactive: 72%
7 | CC(C)(C)c1ccc(C(=O)N2CCN(CCc3ccccn3)CC2)cc1 | inactive: 45%
8 | CCC(C)NC(=O)Cn1c(=O)n(-c2ccc(C)c(C)c2)c(=O)c2c(C)c(C(=O)N(CC)CC)sc21 (stereo not given) | inactive: 80%
9 | CCOc1ccccc1NC(=O)CSC1=Nc2ccccc2C2=NC(CC(=O)NCc3ccc4c(c3)OCO4)C(=O)N12 (stereo not given) | inactive: 106%
10 | Cc1nn(CC(=O)NCCc2ccccc2)c(=O)c2c1sc1ccccc12 | inactive: 79%
11 | Clc1nc(Cl)nc(N2CCCCC2)n1 | inactive: 86%
12 | O=c1cc(-c2ccccc2)n2c(SCc3ccc(Br)cc3)nnc2[nH]1 | inactive: 104%
13 | CCS(=O)(=O)c1ncc(Cl)c(C(=O)N2CCN(c3ccc(OC)cc3)CC2)n1 | inactive: 68%
14 | CCOc1ccc(NC(=O)c2oc3ccccc3c2NC(=O)COc2cccc(OC)c2)cc1 | inactive: 78%
15 | Cc1cccc(CN2C(=O)c3ccccc3Sc3ccc(C(=O)NCc4ccco4)cc32)c1 | inactive: 102%
16 | O=c1c2ccccc2nc(/C=C/c2cccc3ccccc23)n1-c1ccc(F)cc1F | inactive: 99%
17 | COc1ccc(/C=C(\NC(=O)c2ccccc2)C(=O)N2CCN(C)CC2)cc1 | inactive: 94%
18 | Cc1ccc(CNC(=O)CCc2cn(C)c3ccccc23)cc1 | inactive: 91%
19 | NS(=O)(=O)c1ccc(CCNC(=O)C2CCN(c3ncnc4c3nc3n4CCCCC3)CC2)cc1 | inactive: 83%
20 | CCC(Sc1nc2c(sc3ccccc32)c(=O)n1CCc1ccc(OC)c(OC)c1)C(=O)N(CC)CC (stereo not given) | inactive: 76%
21 | CCC(CC)C(=O)Nc1nnc(S(=O)(=O)N2CCCCCC2)s1 | inactive: 85%
22 | COc1ccc(CCNC(=O)c2ccc3c(c2)CCN3S(C)(=O)=O)cc1OC | inactive: 89%
23 | CCCOc1ccc(Cc2c(O)nc(N)[nH]c2=O)cc1C | inactive: 76%
24 | COc1ccc2c(CNCCc3ccc(SC)cc3)c(C(=O)O)n(Cc3ccc(F)cc3)c2c1 | inactive: 95%
25 | COc1ccc2c(c1)c(=O)c(C(=O)c1ccccc1)cn2CC(=O)Nc1ccc2c(c1)OCO2 | inactive: 99%
